Laboratory results reported in PMC4336329 (PLoS ONE, 2015).
The campaign covered roughly 310,000 compounds. About 2,200 (0.71%) showed an effect of 50% or more. The effect is printed as a negative number. The list shows a part of the results.

target: human ether-à-go-go-related gene (hERG) potassium channel (human, UniProt Q12809); assay: primary screen, population patch clamp on CHO cells stably expressing hERG
Sequence (Q12809 whole entry, looked up): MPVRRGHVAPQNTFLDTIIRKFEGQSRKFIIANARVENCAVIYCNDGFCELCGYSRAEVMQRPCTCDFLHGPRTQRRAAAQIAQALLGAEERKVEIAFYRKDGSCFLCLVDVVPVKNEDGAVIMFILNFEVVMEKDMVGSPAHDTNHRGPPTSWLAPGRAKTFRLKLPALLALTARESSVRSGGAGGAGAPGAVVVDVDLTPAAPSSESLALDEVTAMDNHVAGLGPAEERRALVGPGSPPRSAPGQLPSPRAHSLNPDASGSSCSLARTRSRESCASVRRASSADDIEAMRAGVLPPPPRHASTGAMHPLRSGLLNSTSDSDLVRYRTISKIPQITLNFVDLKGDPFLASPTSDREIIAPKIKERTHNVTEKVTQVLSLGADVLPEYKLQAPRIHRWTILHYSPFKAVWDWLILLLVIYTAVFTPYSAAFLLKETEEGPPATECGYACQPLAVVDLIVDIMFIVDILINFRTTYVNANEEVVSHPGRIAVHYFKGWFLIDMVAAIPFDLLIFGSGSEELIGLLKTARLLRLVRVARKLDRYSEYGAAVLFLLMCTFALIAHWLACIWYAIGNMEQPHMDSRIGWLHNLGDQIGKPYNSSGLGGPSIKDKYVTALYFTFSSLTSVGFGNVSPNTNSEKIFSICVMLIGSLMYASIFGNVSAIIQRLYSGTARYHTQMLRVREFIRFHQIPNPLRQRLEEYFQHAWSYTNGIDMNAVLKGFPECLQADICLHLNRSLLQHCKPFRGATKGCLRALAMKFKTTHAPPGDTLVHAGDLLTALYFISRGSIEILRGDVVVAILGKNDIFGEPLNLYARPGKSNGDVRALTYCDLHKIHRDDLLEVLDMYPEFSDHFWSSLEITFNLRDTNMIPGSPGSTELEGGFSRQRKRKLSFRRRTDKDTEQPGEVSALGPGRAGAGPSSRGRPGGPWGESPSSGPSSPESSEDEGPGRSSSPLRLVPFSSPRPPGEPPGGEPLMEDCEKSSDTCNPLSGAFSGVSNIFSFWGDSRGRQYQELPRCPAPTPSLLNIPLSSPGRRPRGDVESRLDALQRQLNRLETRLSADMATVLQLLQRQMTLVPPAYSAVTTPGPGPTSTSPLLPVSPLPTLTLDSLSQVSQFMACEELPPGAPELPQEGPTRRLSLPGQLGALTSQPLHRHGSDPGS

| SMILES | hERG current change (%, negative = inhibition) at 1uM [%] |
| --- | --- |
| CCOc1ccc(-c2nnc(-c3cccnc3)o2)cc1OCC | -22.8 |
| COc1ccc(CC(=O)OCC(=O)Nc2ccc3c(c2)OCO3)cc1OC | 9.33 |
| O=C(/C=C/c1cccc([N+](=O)[O-])c1)NCCSCc1cccc(Cl)c1 | 7.06 |
| CC(C)c1nnc(SCC(=O)NC2CCCC2)n1C | 16.6 |
| CC(C)c1[nH]c(=O)c(C#N)c2c1COC(C)(C)C2 | -22.2 |
| C=C(C)CN1CCN(c2c(CCC#N)c(C)c(C#N)c3nc4ccccc4n23)CC1 | -0.835 |
| S=C(Nc1cccc2ccccc12)N1CCN(c2ncccn2)CC1 | 17.5 |
| C=C(C)Cn1c(=S)[nH]c2ccccc2c1=O | 5.35 |
| CCOC(=O)c1c(C=O)c(C)n(Cc2ccccc2Cl)c1C | 11.8 |
| O=C(Nc1cc(S(=O)(=O)N2CCOCC2)ccc1N1CCCC1)c1ccc(F)cc1 | -10.7 |
| CCOC(=O)c1c(C)n(-c2ccc(C)cc2)c2c(CC(C)=O)c(Br)c(OC)c(O)c12 | 20 |
| COc1ccc(S(=O)(=O)NCC(=O)N(CC(=O)NCc2ccco2)Cc2ccc(F)cc2)cc1 | 0.43 |
| CN(C)C=Nc1c(Br)cc(Br)c2nonc12 | -11.8 |
| CC(C)Oc1ccc(C2c3c(oc4ccccc4c3=O)C(=O)N2CCCN2CCOCC2)cc1 (centres unmarked) | -4.7 |
| O=C1NC(=O)N(c2ccccc2)C(=O)/C1=C/c1ccc2c(c1)Cc1ccccc1-2 | 13.6 |
| CCOC(=O)CSc1nc(C)cc(C)c1C#N | 8.12 |
| O=C(OCCN=C1NS(=O)(=O)c2ccccc21)c1cccc([N+](=O)[O-])c1 | 12.8 |
| CN(Cc1nc(-c2cccnc2)no1)S(=O)(=O)c1ccccc1 | -4.45 |
| Cc1ccc(NC(=O)/C(C#N)=C/c2ccsc2)c(C)c1 | 15.6 |
| CC(=O)NC(O)C(=O)c1ccco1 (centres unmarked) | 14.8 |
| Cc1ccc(CC(=O)NCCS(=O)c2ccc(C)cc2)cc1 (centres unmarked) | 8.71 |
| O=C(NC(N1CCCCCC1)C(Cl)(Cl)Cl)c1ccccc1Cl (centres unmarked) | 12.9 |
| COc1ccc(C(=O)Nc2ccccc2C(=O)Nc2cc(C)ccn2)cc1 | 9.08 |

| SMILES | hERG current change (%, negative = inhibition) at 1uM [%] |
| --- | --- |
| COc1ccccc1N1CCN(C(=O)c2ccc(COc3cccc4c3OC(C)(C)C4)cc2)CC1 | 4.86 |
| Cc1ccc(OCc2nnc(N)s2)cc1C | 13.9 |
| COc1ccc(C(C)=O)cc1CN1C(=O)NC2(CCCCCC2)C1=O | -3.38 |
| COc1ccc(C(=O)/C=C/c2ccc(C)cc2)c(OC(=O)c2ccc([N+](=O)[O-])cc2)c1 | 6.76 |
| O=S(=O)(c1ccc(S(=O)(=O)N2CCCN(Cc3ccccc3)C2)cc1)N1CCCCCC1 | 10 |
| COc1ccc(CCNC(=O)C2c3ccccc3C(=O)N2CCC(C)C)cc1OC (centres unmarked) | 13.8 |
| CCOc1ccc(-c2cc(C(=O)NCCCN3CCN(CC)CC3)c3ccccc3n2)cc1 | -4.12 |
| NC(=O)Cn1nnc(-c2ccccc2NC(=O)c2cnccn2)n1 | 11.3 |
| CC1CCN(C(=O)CN2C(=O)C(=O)N(C(C)C)C2=O)c2ccccc2S1 (centres unmarked) | 3.69 |
| Cc1ccc(CNC(=O)C2CCC(=O)N(CCc3ccccc3)C2)s1 (centres unmarked) | 18.1 |
| CC1CN(C(=O)CCC(=O)NCc2cccnc2)c2ccccc2O1 (centres unmarked) | 5.05 |
| COC(=O)C1=C(C)N(C)C(=S)N(C)C1c1ccc(OC)cc1 (centres unmarked) | -2.15 |
| COc1ccc(N2CCN(CCCNC(=O)CC3Oc4ccc(C)cc4NC3=O)CC2)cc1 (centres unmarked) | -29.9 |
| Cc1ccc(/C=C/c2onc(C)c2S(=O)(=O)N2CCC(C(=O)N3CCCCC3)CC2)cc1 | 7.15 |
| COc1ccc(NS(=O)(=O)c2ccc(NC(=S)NC(=O)CC(C)C)cc2)cc1 | 4.45 |
| CCCC1C(=O)N(Cc2ccccc2)C(=O)CC1C (centres unmarked) | 12.4 |
| Cc1cnc(SCCc2ccncc2)nc1C.Cl | 6.33 |
| CC(C)CCNC(=O)C1CCN(Cc2cccc(OCc3ccccc3)c2)CC1.O=C(O)C(=O)O | -10.6 |
| CCc1ccc(OC(=O)/C=C/c2ccco2)cc1 | 5.5 |
| CCCn1c(=O)c2c(nc(Br)n2CCC)n(C)c1=O | 9.07 |
| CCOC(=O)C(NC(=O)NCc1ccccc1OC)(OCC)C(F)(F)F (centres unmarked) | 3.63 |
| COc1cc(C2=NOC(C(=O)Nc3ccc4c(c3)OCO4)C2)cc(OC)c1OC (centres unmarked) | 15.5 |
| COc1ccc2nc(NC(=O)CSc3nc4cccnc4n3C)sc2c1 | 14.2 |

| SMILES | hERG current change (%, negative = inhibition) at 1uM [%] |
| --- | --- |
| CC(=O)c1c(NCCc2ccccc2)nc(=S)n(-c2ccccc2)c1C | 12.4 |
| NC(CO)(CO)CO.O=C(c1ccccc1)c1ccc2n1CCC2C(=O)O (centres unmarked) | 5.92 |
| CCc1nc2ccccc2nc1N1CCN(S(=O)(=O)c2c(C)cc(Cl)cc2C)CC1 | 12.6 |
| O=C(Nc1ccc(N2CCN(C(=O)c3cccs3)CC2)c(Cl)c1)c1cccnc1 | 6.24 |
| S=C(Nc1ccccc1)N1CCOCCOCCN(C(=S)Nc2ccccc2)CCOCCOCC1 | 8.24 |
| COc1ccccc1N1CCN(C(=O)COc2ccc(C)cc2Br)CC1 | 11.7 |
| O=C(c1cc(-c2ccncc2)nc2ccccc12)N1CCN(S(=O)(=O)/C=C/c2ccccc2)CC1 | -8.43 |
| COc1cc(-c2onc3ccc(Br)cc23)cc(OC)c1OC | 10.9 |
| COc1nc(Nc2ccc([N+](=O)[O-])cc2)nc(NC(C)C)n1 | 0.558 |
| Cn1nnnc1SCc1ccc(Cl)cc1 | 23.4 |
| COc1ccccc1C(=O)NCCNC(=O)c1ccco1 | 15.7 |
| COc1ccc(NS(=O)(=O)c2cccc(C(=O)N/N=C/c3cn(-c4ccccc4)nc3-c3ccccc3)c2)cc1 | 7.66 |
| Cc1cccc(C)c1NC(=O)CNC(=O)CNC(=O)Cc1cccc2ccccc12 | 8.54 |
| CCCS/C(N)=N/N=C/c1ccccc1O | 4.25 |
| CCOC(=O)CCNCC1COc2ccccc2O1.Cl (centres unmarked) | 4.49 |
| CCN(CCNC(=O)C1CCCN(S(=O)(=O)c2cnc[nH]2)C1)c1ccccc1 (centres unmarked) | 19.7 |
| O=C(NCCCNC(=O)c1ccccn1)c1cccc(F)c1 | 7.69 |
| Cc1ccnc(NS(=O)(=O)c2ccc(NC(=O)C3CC3)cc2)n1 | 18.5 |
| CS(=O)(=O)N(C(=O)NC(=O)NC12CC3CC(CC(C3)C1)C2)C1CCCCC1 | 4.78 |
| COc1ccc(N(CC(=O)NC2CCCCC2C)S(=O)(=O)c2c(C)nn(C)c2C)cc1 (centres unmarked) | 0.095 |
| CCN=C1SC(CC(=O)Nc2ccc(C)cc2)C(=O)N1CC (centres unmarked) | 13.4 |
| Cc1cc2oc(C(=O)Nc3cccnc3)c(C)c2cc1C | -6.17 |
| COC(=O)c1ccc(NC(=O)CNS(=O)(=O)c2cccs2)cc1 | 5.87 |

| SMILES | hERG current change (%, negative = inhibition) at 1uM [%] |
| --- | --- |
| Cc1ccc(C(=O)N/C(=C\c2ccco2)C(=O)NCCCN2CCOCC2)cc1C | 9.35 |
| CCOC(=O)N1CCC(N(CCOC)C(=O)Nc2ccc(CC)cc2)CC1 | -4.01 |
| O=C(CNS(=O)(=O)c1ccc(F)cc1)N1CCN(c2ccc(F)cc2)CC1 | -14.9 |
| COc1ccc(NC(=O)CSc2nc3ccc(Nc4nc(N5CCOCC5)nc(N5CCOCC5)n4)cc3s2)cc1 | 3.97 |
| COc1ccc(S(=O)(=O)Nc2ccccc2)cc1 | 7.2 |
| COc1ccc(CC(=O)OCC(=O)NCC2CCCO2)cc1OC (centres unmarked) | 8.54 |
| Cc1cccc(N2CCN(C(=O)C3CCN(c4nnc(-n5cccc5)s4)CC3)CC2C)c1 (centres unmarked) | -1.81 |
| Cc1csc(SC(C)C(=O)Nc2ccccc2C)n1 (centres unmarked) | 0.187 |
| CCCCNC(=S)N(C)/N=C/c1sc(N2CCCCC2)nc1-c1cccs1 | 14.6 |
| CCOc1ccccc1NC(=O)Cn1c(=O)sc2ccccc21 | 2.95 |
| O=C(Oc1ccc([N+](=O)[O-])cc1)c1cccnc1 | 13.1 |
| Cc1ccc(S(=O)(=O)N=S(CCO)CCO)cc1 | -0.757 |
| Cc1ccc(Sc2cnn(-c3ccccc3)c(=O)c2Cl)cc1 | 20.3 |
| Cc1cc(C)c(OCC(=O)OCC(=O)N2CCN(C(=O)c3ccco3)CC2)c(C)c1 | 11.2 |
| O=C(Oc1ccc2cc(Br)ccc2c1)N1CCCCCC1 | 14 |
| O=C(N/N=C/c1c(O)n(Cc2ccccc2)c(=O)[nH]c1=O)c1ccccc1O | -3.24 |
| CNc1ccc(Oc2c(F)c(F)nc(F)c2F)cc1 | 8.81 |
| CC(C)COc1ccc(C(=O)N/C(=C/c2cccc([N+](=O)[O-])c2)C(=O)O)cc1 | 17.3 |
| O=C(NC1CCCCC1)C(c1ccncc1)N(C(=O)Cn1nnc(-c2cccs2)n1)C1CCCC1 (centres unmarked) | -4.68 |
| COc1ccc(CNc2ccc3c(c2)CCC3)cc1OC | 11.9 |
